Data on 49 compounds can be found in the supplement of paper PMC12340641.

The full ranking holds about 1,000 compounds; the median of “relative growth in counter assay (no AraC = 100%, AraC + DMSO = 0%)” is about -1.1, and the highest 2% start at about 20. The list shows a part of the results.

For this test, the system named is HEK293FT dCK*-only. The experiment in a line: relative growth in counter assay (no AraC = 100%, AraC + DMSO = 0%); higher = more growth rescue independent of IKZF1. The note with it: compound concentration: 5 uM; AraC concentration: 0.3 uM; overnight pretreatment + 4 days AraC. On the procedure: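 Growth recovery screen of the molecular-glue-like (Specs) library. HEK293FT cells expressing a dCK*-IKZF1 fusion (primary) or dCK* alone (counter) were pretreated overnight with compound at 5 uM, then given 0.3 uM AraC for 4 days. Hoechst nuclei were counted by imaging. Primary: normalised to pomalidomide (100%) and DMSO (0%), mean of 2 replicates. Counter: normalised to no-AraC (100%) and AraC+DMSO (0%), single replicate.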
Turning to `Cc1csc(Nc2cccc(C3CN(C(=O)CCc4nc(C)no4)CCO3)n2)n1` (centres undefined), the “relative growth in counter assay” value was 4.72%.
As for `CN(C)Cc1cnc(Nc2cccc(C3CCN(C(=O)C4CCCCC4)CC3)n2)s1`, the figure is -4.62%.
With `CC(CC(=O)Nc1ccc(S(=O)(=O)Nc2ncccn2)cc1)c1ccccc1` (centres undefined), the “relative growth in counter assay” value was 0.16%.
As for `CCCc1cnc(Nc2cccc(C3CCN(C(=O)C4CCCCN4C(=O)CN(C)C)CC3)n2)s1` (centres undefined), the figure is -3.09%; as for `O=C(C1COCCN1)N1CCC(c2cccc(Nc3ncc(Cl)s3)n2)CC1` (centres undefined), -25.1%; as for `CC(=O)Nc1ccc(S(=O)(=O)Nc2cc(C)nc(C)n2)cc1`, 2.38%.
As for `Cc1csc(Nc2cccc(C3CCN(CC(=O)NCc4ccccn4)CC3)n2)n1`, the figure is -13.2%; as for `Cc1ccc2[nH]nc(C(=O)N3CCCC3c3cccc(Nc4nc(C)cs4)n3)c2c1` (centres undefined), 2.1%; as for `O=[N+]([O-])c1ccc(S(=O)(=O)Nc2ccc(Cl)cn2)cc1`, 9.98%.
As for `Cc1cnc(Nc2cccc(C3CN(C(=O)CN(CCC(C)C)c4ccccc4)CCO3)n2)s1` (centres undefined), the figure is -0.69%; as for `CCOc1ccccc1OCC(=O)Nc1ccc(S(=O)(=O)Nc2ncccn2)cc1`, 2.46%.
On to `O=C(Nc1ccc(S(=O)(=O)Nc2ncccn2)cc1)c1ccccc1Br`, for which the “relative growth in counter assay” value was -0.83%.
As for `Cc1cnc(Nc2cccc(CC3CCN(C(=O)CO)CC3)n2)s1`, the figure is -16.1%; as for `Cn1cnc(S(=O)(=O)N2CCOC(c3cccc(Nc4ncc(CNC(=O)c5cccc(F)c5)s4)n3)C2)c1` (centres undefined), 3.31%; as for `CN(CC(=O)N1CCC(c2cccc(Nc3ncc(-c4ccccc4)s3)n2)CC1)C(=O)OC(C)(C)C`, -10.1%.
The value for `CC(C)c1ccc2[nH]c3nc(SCC(=O)Nc4ccc(F)cc4)nnc3c2c1` was -14.8%.
The value for `Cc1ccnc(NS(=O)(=O)c2ccc(N3C(=O)c4ccccc4C3=O)cc2)n1` was -0.67%.
Regarding `O=C(Nc1ccc(S(=O)(=O)Nc2ncccn2)cc1)c1ccccc1Oc1ccccc1`, the “relative growth in counter assay” value was -7.12%.
The value for `COC1CCC(C(=O)N2CCC(c3cccc(Nc4ncc(C)s4)n3)CC2)CC1` (centres undefined) was -21.3%.
As for `Cc1nc(Nc2cccc(C3CCN(C(=O)c4ccccn4)CC3)n2)sc1C`, the figure is 4.46%; as for `COc1cc(NS(=O)(=O)c2ccc(NC(=O)/C=C/C(=O)O)cc2)nc(OC)n1`, 2.31%.
As for `CCCc1cnc(Nc2cccc(C3CN(C(=O)Cn4c(CC(C)C)nc5ccccc54)CCO3)n2)s1` (centres undefined), the figure is -20.3%; as for `CC(=O)N1CCC(Cc2cccc(Nc3nccs3)n2)CC1`, -8.99%; as for `Cc1csc(Nc2cccc(C3CCN(C(=O)Cn4nc(C)cc4C)CC3)n2)n1`, 5.92%.
Consider `COc1cc(NS(=O)(=O)c2ccc(N/C=C\C(=O)c3cccs3)cc2)nc(OC)n1`, for which the “relative growth in counter assay” value was -3.43%.
On to `CCOC(=O)c1ccc(N2C(=O)c3ccc(Oc4ccc(NC(C)=O)cc4)cc3C2=O)cc1`, for which the “relative growth in counter assay” value was -11%.
The value for `O=C(O)c1ccc(N2C(=O)c3ccc(Oc4ccccc4)cc3C2=O)cc1` was 8.38%; that for `COc1cc(NS(=O)(=O)c2ccc(NC(=O)c3c(OC)cccc3OC)cc2)nc(OC)n1` was -1.93%.
As for `O=C(/C=C/c1cnc[nH]1)N1CCC(c2cc3ccccc3c(Nc3nccs3)n2)CC1`, the “relative growth in counter assay” value was -23%.
As for `COc1ccc(/C=C(\C#N)C(=O)Nc2ccc(S(=O)(=O)Nc3ncccn3)cc2)cc1`, the figure is -1.25%.
The value for `COCC(=O)N1CCC(c2cccc(Nc3ncc(C)s3)n2)CC1` was -25.6%.
The value for `O=C(Nc1ccc(S(=O)(=O)Nc2ccccn2)cc1)c1ccc(Cl)c(Cl)c1` was -3.14%; that for `COc1nccnc1NS(=O)(=O)c1ccc(NC(=S)NC(=O)c2cccnc2)cc1` was 2.58%; that for `Cc1cnc(Nc2cccc(C(CO)C3CCN(C(=O)C4CCCCC4)CC3)n2)s1` (centres undefined) was 0.31%.
For `Cc1csc(Nc2cccc(C3CCCN3C(=O)CO)n2)n1` (centres undefined), the “relative growth in counter assay” value was found to be 10.3%.
As for `COc1cccc(OC)c1C(=O)N1CCOC(c2cccc(Nc3ncc(C)s3)n2)C1` (centres undefined), the figure is -4.53%.
Take `COCC(=O)N1CCC(c2cccc(Nc3nc(C)cs3)n2)CC1`: the “relative growth in counter assay” value was determined as 14%.
For the compound `Cc1ccc2[nH]c3nc(SCC(=O)Nc4cc(Cl)ccc4C)nnc3c2c1`, the “relative growth in counter assay” value was -6.45%.
As for `CNC(=O)C1(c2cccc(Nc3ncc(C)s3)n2)CN(S(=O)(=O)c2cn(C)cn2)CCO1` (centres undefined), the figure is -2.93%.
The value for `COC(=O)C(c1cccc(Nc2ncc(C)s2)n1)C1CCN(C(=O)C2(NC(=O)OC(C)(C)C)CCCCC2)CC1` (centres undefined) was 9.03%; that for `Cc1cc(C)nc(NS(=O)(=O)c2ccc(NC(=O)CSc3nc4c(cc3C#N)CCC4)cc2)n1` was -5.81%; that for `COc1cccc(C(=O)Nc2ccc(S(=O)(=O)Nc3nc(C)cc(C)n3)cc2)c1` was -0.82%.
In the case of `CCC(CC)C(=O)Nc1ccc(S(=O)(=O)Nc2ncccn2)cc1`, the “relative growth in counter assay” value is 2.05%.
As for `Cn1cc(/C=C/C(=O)N2CCC(c3cc4ccccc4c(Nc4nccs4)n3)CC2)cn1`, the “relative growth in counter assay” value was -25.6%.
As for `Cc1ccc(Nc2nc(-c3sc(NC(=O)c4ccccc4)nc3C)cs2)nc1`, the figure is 74.3%.
As for `NCC(=O)N1CCC(c2cccc(Nc3ncc(Cl)s3)n2)CC1`, the figure is -23.9%; as for `COc1cc(NS(=O)(=O)c2ccc(Nc3nc(-c4cccs4)cs3)cc2)nc(OC)n1`, 1.07%; as for `Cc1ccn(CCC(=O)N2CCC(c3cccc(Nc4ncc(C)s4)n3)CC2)n1`, 4.45%.
On to `N#CCN1CCCC(c2cccc(Nc3nc(C(=O)N4CCNC(=O)C4)cs3)n2)C1` (centres undefined), for which the “relative growth in counter assay” value was -2.35%.
